In PubChem BioAssay AID1347165 (National Center for Advancing Translational Sciences (NCATS), 2019):
The whole screen tested about 220,000 compounds, of which about 5,700 (2.6%) were called active. The shares of active, inactive and inconclusive entries below differ from those in the screen. Calls come from the whole dose curve; as a rule, active = well fitted inhibition curve with a large enough effect; inconclusive = small, poorly fitted or top-dose-only effect; inactive = no such curve, though single readings can be large or run the other way. Potencies beside an inconclusive call are fits to weak or partial responses and may not hold up.

Target: Lysine-specific demethylase 5B (Homo sapiens) (UniProt Q9UGL1)
UniProt Q9UGL1, sequence (Q9UGL1 whole entry, looked up): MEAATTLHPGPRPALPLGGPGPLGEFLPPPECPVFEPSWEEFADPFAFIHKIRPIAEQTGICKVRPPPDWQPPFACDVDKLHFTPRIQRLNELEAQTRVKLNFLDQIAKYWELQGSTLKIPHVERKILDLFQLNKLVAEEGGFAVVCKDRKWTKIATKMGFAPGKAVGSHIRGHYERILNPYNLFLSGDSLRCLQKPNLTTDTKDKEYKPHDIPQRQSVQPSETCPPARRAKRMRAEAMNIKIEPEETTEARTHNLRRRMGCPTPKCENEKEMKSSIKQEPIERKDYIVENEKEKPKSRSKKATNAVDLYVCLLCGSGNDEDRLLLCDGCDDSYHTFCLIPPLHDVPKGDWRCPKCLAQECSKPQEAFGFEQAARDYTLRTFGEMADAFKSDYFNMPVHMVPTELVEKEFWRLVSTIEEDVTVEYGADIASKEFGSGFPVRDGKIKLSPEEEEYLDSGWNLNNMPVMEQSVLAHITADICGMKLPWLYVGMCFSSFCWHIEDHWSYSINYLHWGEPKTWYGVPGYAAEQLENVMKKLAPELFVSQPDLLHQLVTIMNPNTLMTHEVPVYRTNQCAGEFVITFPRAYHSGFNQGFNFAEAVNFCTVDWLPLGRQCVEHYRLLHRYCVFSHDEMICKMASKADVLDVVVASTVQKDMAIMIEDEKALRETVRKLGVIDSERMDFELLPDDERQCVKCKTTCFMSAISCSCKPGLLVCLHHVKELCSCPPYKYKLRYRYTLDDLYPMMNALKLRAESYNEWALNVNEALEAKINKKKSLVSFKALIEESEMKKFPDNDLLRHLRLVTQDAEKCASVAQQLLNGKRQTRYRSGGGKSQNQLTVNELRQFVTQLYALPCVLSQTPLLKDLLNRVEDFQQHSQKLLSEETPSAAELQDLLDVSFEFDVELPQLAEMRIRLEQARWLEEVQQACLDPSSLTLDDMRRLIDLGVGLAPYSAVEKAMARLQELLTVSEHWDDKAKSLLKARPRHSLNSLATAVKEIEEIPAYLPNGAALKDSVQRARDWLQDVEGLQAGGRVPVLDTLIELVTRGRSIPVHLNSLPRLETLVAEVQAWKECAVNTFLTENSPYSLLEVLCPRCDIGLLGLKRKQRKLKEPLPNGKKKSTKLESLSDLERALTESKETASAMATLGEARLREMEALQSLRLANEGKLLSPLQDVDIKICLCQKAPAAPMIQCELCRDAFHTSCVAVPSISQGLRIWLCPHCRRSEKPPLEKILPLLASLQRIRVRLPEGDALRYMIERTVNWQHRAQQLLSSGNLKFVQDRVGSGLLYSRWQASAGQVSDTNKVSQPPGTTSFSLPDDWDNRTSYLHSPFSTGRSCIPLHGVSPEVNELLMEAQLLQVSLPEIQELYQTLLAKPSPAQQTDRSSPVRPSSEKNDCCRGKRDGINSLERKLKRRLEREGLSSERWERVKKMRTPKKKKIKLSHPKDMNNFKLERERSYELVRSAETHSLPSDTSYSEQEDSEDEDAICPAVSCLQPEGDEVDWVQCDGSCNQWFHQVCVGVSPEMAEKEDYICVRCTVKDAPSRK
Experiment: Primary screen for KDM5B Histone Demethylases FDH-coupled qHTS; note: nearly all actives have a fitted effect of over 70% in size; for activity change, negative = inhibition: 0% is about no effect
Conditions: FDH-coupled NADH fluorescence (FDH is formaldehyde dehydrogenase); activity change, negative = inhibition: at 57.7 µM (top of the series) unless noted
Summary of the method: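 Here, H3K4me3 peptide (12.5 µM in substrate mix) is demethylated by KDM5BΔAP, 200 nM final, after 10 min compound exposure. Formaldehyde product is coupled through FDH (0.25 U/mL in mix) to NADH fluorescence; 30-min ΔRFU feeds dose-response curves.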
Potency is the fitted concentration of half-maximal effect; tags give direction and shape of the fitted curve.

| Structure (SMILES) | activity change, negative = inhibition | Potency |
| --- | --- | --- |
| O=C(OCC(=O)c1c[nH]c2ccccc12)c1ccccc1C(=O)c1ccc(Cl)c([N+](=O)[O-])c1 | inactive: 9.61% |  |
| CS(=O)(=O)N(Cc1cccnc1)C1CN(C(=O)c2cc3ccccc3[nH]2)C1 |  | inconclusive: 14.1 µM [inhibitor, partial curve, poor fit] |
| COCCCNC(=O)c1ccc(C)c(-n2c(C)nc3cccnc32)c1 |  | inconclusive: 28.2 µM [inhibitor, partial curve, poor fit] |
| Cc1nc2ccn(Cc3cccnc3)c(=O)c2cc1C(=O)Nc1ccc(F)cc1F |  | inconclusive: 17.8 µM [inhibitor, single point] |
| O=C(/C=C/c1ccc(F)cc1)Nc1ccccc1-c1ccccc1 |  | inconclusive: 28.2 µM [inhibitor, single point] |
| CCCNC(=O)c1cc(-c2ccc(C)s2)nc2ccccc12 |  | inconclusive: 15.8 µM [inhibitor, partial curve, poor fit] |
| CC(=O)c1ccc(NC(=O)Cn2c(=O)nc(-c3ccccc3)c3cc(Cl)ccc32)cc1 |  | inconclusive: 1.58 µM [inhibitor, full curve, poor fit] |
| Cc1ccc(Nc2cc(C)c3ccccc3n2)c(C)c1 |  | inconclusive: 39.8 µM [inhibitor, single point] |
| O=C(CSc1nnnn1-c1ccc(C(=O)O)cc1)Nc1cccc2ccccc12 | inactive: -0.478% |  |
| COc1ccc2c(C)c(CC(=O)NC3CCS(=O)(=O)C3)c(=O)oc2c1 (stereo unspecified) |  | inconclusive: 10 µM [inhibitor, partial curve, poor fit] |
| Cc1cccc(C(=O)Nc2ccc(S(=O)(=O)N(Cc3ccccc3)c3ccccc3)cc2)c1 |  | inconclusive: 25.1 µM [inhibitor, partial curve, poor fit] |
| O=C(Nc1ccc(Cl)cc1)c1nn(Cc2ccccc2)c(=O)c2ccccc12 | inactive: 16.4% |  |
| CNC(=O)c1cnn2c1CN(C(=O)c1ccccc1F)CC2 | inactive: 10.6% [at 149 µM] |  |
| Cc1cc(=O)oc2cc(OCCC[n+]3ccccc3)ccc12 |  | inconclusive: 25.1 µM [inhibitor, partial curve, poor fit] |
| Cc1ccc(C(=O)Nc2cc3c(cc2C(=O)c2ccccc2)OCCO3)cc1 | inactive: 7.58% |  |
| O=C1CCN(S(=O)(=O)c2ccccc2)CCCC(C(=O)NCCN2CCOCC2)CCN1 (stereo unspecified) | inactive: 33.5% |  |
| COc1cc(CCC(=O)Nc2ccc3oc(-c4ccc(Cl)cc4)cc(=O)c3c2)on1 | inactive: -15.1% |  |
| CN(C)C[C@@H]1CN(c2ccncn2)C[C@H]1NC(=O)c1cc(C2CC2)[nH]n1 | inactive: -3.97% |  |
| CCc1ncncc1C(=O)O | inactive: 18.8% |  |
| CCn1cc(CN2CC[C@H]3C(=O)NCCCCCCN(Cc4ccncc4)[C@@H]3C2)cn1 |  | inconclusive: 20 µM [inhibitor, single point] |
| CCN(CC)c1ccc2cc(-c3nc(-c4ccccc4F)no3)c(=O)oc2c1 |  | inconclusive: 31.6 µM [inhibitor, single point] |
| CCCN1CCc2nc(N)c(C#N)c(-c3cc(OC)c(OC)c(OC)c3)c2C1 |  | inconclusive: 39.8 µM [inhibitor, single point] |
| COc1cc(C)cc2oc(=O)c(CC(=O)NCCc3ccc(S(N)(=O)=O)cc3)c(C)c12 |  | inconclusive: 2.24 µM [inhibitor, full curve, poor fit] |

| Structure (SMILES) | activity change, negative = inhibition | Potency |
| --- | --- | --- |
| CN(CCCC1CCCC1)C(=O)CC1C(=O)NCCN1Cc1cccc(F)c1F (stereo unspecified) |  | inconclusive: 22.4 µM [inhibitor, partial curve, poor fit] |
| O=C(Cc1c[nH]c2ncc(-c3cccnc3)cc12)NC1CCOCC1 | inactive: -25.4% [at 86.2 µM] |  |
| c1ccc2c(c1)OCC(CCn1ccnc1-c1cc3n(n1)CCNC3)O2 (stereo unspecified) |  | inconclusive: 22.4 µM [inhibitor, partial curve, poor fit] |
| COc1ccc(OCCC(=O)Nc2cccc3cccnc23)cc1 | inactive: 5.07% |  |
| Cc1nn(C)c(C)c1C(C)C(=O)Nc1cc(F)c(N(C)C)c(F)c1 (stereo unspecified) | inactive: 14.6% |  |
| N#Cc1ccccc1Cn1c(CN2CCCCC2)nc2scc(-c3cccs3)c2c1=O | inactive: 10.1% |  |
| CCOC(=O)N1CCc2c(sc3c2C(=O)NC(c2cccc4ccccc24)N3)C1 (stereo unspecified) |  | inconclusive: 31.6 µM [inhibitor, partial curve, poor fit] |
| CC(C)(C)NC(=O)C[C@@H]1CCNC[C@@H]1Cc1cc(-c2ccc(C(C)(C)C)cc2)on1 | inactive: -18% [at 86.2 µM] |  |
| COc1ccc(-c2cc(C(=O)Nc3cccc(O)c3)on2)cc1OC |  | inconclusive: 28.2 µM [inhibitor, partial curve, poor fit] |
| Clc1ccccc1-n1nnnc1-c1ccccc1 | inactive: -9.34% |  |
| O=C(Nc1c(C(=O)N2CCC(N3CCCCC3)CC2)oc2ccccc12)C1CC1 | inactive: -7.74% |  |
| COc1ccc(N2C(=O)C3(CCCCC3)C2C(=O)NCCCN2CCCC2)cc1 (stereo unspecified) | inactive: -22.5% |  |
| Cc1ccc2[nH]cc(C(C(=O)O)N3CCN(Cc4nonc4C)CC3)c2c1 (stereo unspecified) | inactive: -2.27% |  |
| O=C(NCc1ccncc1)c1ccc2nccn2c1 |  | inconclusive: 17.8 µM [inhibitor, partial curve, poor fit] |
| COC(=O)CC(NC(=O)N1CCc2c(nc(-c3ccccc3)[nH]c2=O)C1)c1ccccc1 (stereo unspecified) | inactive: -3.24% |  |
| C[N+]1(CCCCCCCCCCCCCO)CCCC1 | inactive: 9.66% |  |
| COc1cccc(C2=NS(=O)(=O)N(C)C(C(=O)Nc3ccccc3SC)=C2)c1 |  | inconclusive: 8.91 µM [inhibitor, partial curve, poor fit] |
| CN1C(=O)[C@@H]2C[C@@H](CN2C2COC2)Oc2ccccc21 |  | inconclusive: 35.5 µM [inhibitor, partial curve] |
| CCn1c(N2CCN(Cc3ccccc3F)CC2)nc2c1c(=O)[nH]c(=O)n2C | inactive: 4% |  |
| N[C@H]1CO[C@H]2[C@@H]1OC[C@@H]2n1cc(CC2CCCCC2)nn1 | inactive: -19.1% [at 115 µM] |  |
| CCOc1ccc(NC(=O)c2cc(=O)c3cc(C)ccc3o2)cc1 | inactive: 19.2% |  |
| CCOC(=O)c1ccc(Nc2c(-c3cccc(O)c3)nc3nc[nH]n23)cc1 |  | inconclusive: 31.6 µM [inhibitor, single point] |
| Cc1ccc(NCc2cccn2-c2nnc(N3CCC(C(=O)NCCC(C)C)CC3)s2)cc1 |  | inconclusive: 25.1 µM [inhibitor, partial curve, poor fit] |
